Laboratory results: the GPR68 mutational scans of Howard et al. (2025)

B1: GPR68, Q15743 (parent)
chain: MGNITADNSSMSCTIDHTIHQTLAPVVYVTVLVVGFPANCLSLYFGYLQIKARNELGVYLCNLTVADLFYICSLPFWLQYVLQHDNWSHGDLSCQVCGILLYENIYISVGFLCCISVDRYLAVAHPFRFHQFRTLKAAVGVSVVIWAKELLTSIYFLMHEEVIEDENQHRVCFEHYPIQAWQRAINYYRFLVGFLFPICLLLASYQGILRAVRRSHGTQKSRKDQIQRLVLSTVVIFLACFLPYHVLLLVRSVWEASCDFAKGVFNAYHFSLLLTSFNCVADPVLYCFVSETTHRDLARLRGACLAFLTCSRTGRAREAYPLGAPEASGKSGAQGEEPELLTKLHPAFQTPNSPGSGGFPTGRLA

What was measured:
[1] = variants of: B1; assay: cAMP reporter score (Enrich2 score, wild type = 0); higher = more signal; HEK293T, FACS bins
[2] = variants of: B1; assay: surface expression score (Enrich2 score, wild type = 0); higher = more signal; HEK293T, FACS bins

| Variant | cAMP reporter score ([1]; pH 5.5) | cAMP reporter score ([1]; pH 6) | cAMP reporter score ([1]; pH 6, modulator: ogerin) | cAMP reporter score ([1]; pH 6.5, modulator: ogerin) | surface expression score [2] |
| --- | --- | --- | --- | --- | --- |
| MGNITADNSSMSCTIDHTIHQTLAPVVYVTVLVVGFPANCLSLYFGYLQIKARNELGVYLCNLTVADLFYICSLPFWLQYVLQHDNWSHGDLSCQVCGILLYENIYISVGFLCCISVDRYLAVAHPFRFHQFRTLKAAVGVSVVIWAKELLTSIYFLMHEEVIEDENQHRVCFEHYPIQAWQRAINYYRFLVGFLFPICLLLASYQGILRAVRRSHGTQKSRKDQIQRLVLSTYVIFLACFLPYHVLLLVRSVWEASCDFAKGVFNAYHFSLLLTSFNCVADPVLYCFVSETTHRDLARLRGACLAFLTCSRTGRAREAYPLGAPEASGKSGAQGEEPELLTKLHPAFQTPNSPGSGGFPTGRLA [V234Y] | 0.761 | 1.27 | 1.09 | -0.068 | -1.62 |
| MGNITADNSSMSCTIDHTIHQTLAPVVYVTVLVVGFPANCLSLYFGYLQIKARNELGVYLCNLTVADLFYICSLPFWLQYVLQHDNWSHGDLSCQVCGILLYENIYISVGFLCCISVDRYLAVAHPFRFHQFRTLKAAVGVSVVIWAKELLTSIYFLMHEEVIEDENQHRVCFEHYPIQAWQRAINYYRFLVGFLFPICLLLASYQGILRAVRRSHGTQKSRKDQIQRLVLSTWVIFLACFLPYHVLLLVRSVWEASCDFAKGVFNAYHFSLLLTSFNCVADPVLYCFVSETTHRDLARLRGACLAFLTCSRTGRAREAYPLGAPEASGKSGAQGEEPELLTKLHPAFQTPNSPGSGGFPTGRLA [V234W] | 0.299 | -0.505 | 0.09 | -0.682 | -1.81 |

Scores with a large standard error are left out. Two further conditions of the source, in which the scores hardly spread, are not listed. In variant names, del marks residues removed and ins residues inserted between the two positions. For some of these results: The concentration of ogerin is not given here.
